Experimental data published in the CheMixHub viscosity set.
The source gives many values for each of these; only a part stands here.

Assay: xn = mol fraction of the nth substance listed
Conditions: 101 kPa

CCC(O)CO (centres undefined) + O
viscosity [mPa·s]
Conditions	308.15 K	313.15 K	318.15 K	323.15 K
x1 = 0.005	–	0.689	0.632	0.572
x1 = 0.01	–	0.732	0.669	0.6
x1 = 0.015	0.874	0.78	0.714	0.644
x1 = 0.02	0.929	0.844	0.761	0.686
